The other results are listed elsewhere or left out. Single values are uncertain, as repeats are few or missing.
Test system: UACC62
Assay: cell count relative to DMSO control; melanoma cells; higher = more viable cells
Details: library dose: low library concentration; 72 h
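Note: cell number obtained by counting DAPI-stained nuclei in high-throughput microscope images with image analysis software, screen run in 1,536-well plates.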

Question: How did the cell count turn out when `CO[C@H]1C[C@@H]2CC[C@@H](C)[C@@](O)(O2)C(=O)C(=O)N2CCCC[C@H]2C(=O)O[C@H]([C@H](C)C[C@@H]2CC[C@@H](OCCO)[C@H](OC)C2)CC(=O)[C@H](C)/C=C(\C)[C@@H](O)[C@@H](OC)C(=O)[C@H](C)C[C@H](C)/C=C/C=C/C=C/1C` [everolimus] + COCC[n+]1c2c(n(Cc3cnccn3)c1C)C(=O)c1ccccc1C2=O [YM155] (first compound 0.02 µM, partner dose 0.0004 µM) was run?
Answer: The cell count was 66.7%.

Question: How did the cell count turn out when `CO[C@H]1C[C@@H]2CC[C@@H](C)[C@@](O)(O2)C(=O)C(=O)N2CCCC[C@H]2C(=O)O[C@H]([C@H](C)C[C@@H]2CC[C@@H](OCCO)[C@H](OC)C2)CC(=O)[C@H](C)/C=C(\C)[C@@H](O)[C@@H](OC)C(=O)[C@H](C)C[C@H](C)/C=C/C=C/C=C/1C` [everolimus] + C=CCNC1=C2C[C@@H](C)C[C@H](OC)[C@H](O)[C@@H](C)/C=C(\C)[C@H](OC(N)=O)[C@@H](OC)/C=C\C=C(/C)C(=O)NC(=CC1=O)C2=O [Tanespimycin] (first compound 0.02 µM, partner dose 0.002 µM) was run?
Answer: The cell count was 66.3%.

Question: How did the cell count turn out when `Nc1nc(F)nc2c1ncn2[C@@H]1O[C@H](CO)[C@@H](O)[C@@H]1O` [fludarabine] + Cn1nnc2c(C(N)=O)ncn2c1=O [temozolomide] (first compound 0.2 µM, partner dose 2 µM) was run?
Answer: The cell count was 71.6%.

Question: `CC(=O)c1c(C)c2cnc(Nc3ccc(N4CCNCC4)cn3)nc2n(C2CCCC2)c1=O` [palbociclib] + O=S(=O)(c1ccccc1)N(CC(F)(F)F)c1ccc(C(O)(C(F)(F)F)C(F)(F)F)cc1 [T0901317] (first compound 0.04 µM, partner dose 1.4 µM) was tested. Which cell count did it give?
Answer: The cell count was 63.7%.

Source: the supplement of paper PMC4604168 (melanoma cell lines)
